For 57 molecules, survival results are on record in PubChem BioAssay AID463173 (ICCB-Longwood Screening Facility, Harvard Medical School, 2010).

About 4,300 (8.3%) of roughly 52,000 compounds were called active. Cut-off read from the data, not from the text of the source: active = survival mostly below about 52% (no sharp cut-off); inactive = mostly above about 56%. Some of the results follow.

The test concerns DeltatarO mutant. Kind of test: growth inhibition of S. aureus wild type versus tarO mutant, primary screen, teichoic acid synthesis inhibitors, RN4220, OD600 (AID 463173). The following applies: OD600, 18 h, stronger effect = lower value, screened at 18.75 µg/mL (by protocol).
On to `Cc1ccc(C(CC(=O)NCC2(c3ccccc3)CCCC2)c2ccccc2)c(O)c1` (configuration not stated), for which the survival is inactive: 101%. `Cc1ccc(CCNC(=O)CN2C(=O)COc3ccc(S(=O)(=O)N4CCCCC4)cc32)cc1`: the survival was inactive: 78%. Take `Cc1ccc(Nc2nnc(-c3ccc(C)c(S(=O)(=O)N4CCCCC4)c3)c3ccccc23)cc1`: the survival is inactive: 109%. `CCOc1ccc2c(c1)[C@@H]1C=CC[C@@H]1[C@H](c1ccccc1Cl)N2`: the survival is active: -10%.

Take `CC(=O)Nc1cc(C(=O)NCc2ccc(F)cc2)ccc1Sc1ccc(C)cc1`: the survival was inactive: 94%.

On to `CCOC(=O)CC(NC(=O)Cn1nnc(-c2ccc(C(F)(F)F)cc2)n1)c1ccccc1Cl` (configuration not stated), for which the survival is inactive: 73%. In the case of `COc1ccc(C)cc1NC(=O)c1cc2c(s1)-c1ccccc1SC2`, the survival was inactive: 71%. With `Cc1nn(-c2ccccc2)c(-n2cccc2)c1C(=O)NCc1ccccc1Cl`, the survival was active: 2%. Take `CC1CCN(S(=O)(=O)c2ccc3ncn(CC(=O)Nc4ccccc4C(F)(F)F)c(=O)c3c2)CC1`: the survival was inactive: 62%. For the molecule `Cc1cc(OCC(=O)Nc2cnn(CCCC(=O)O)c2)ccc1Cl`, the survival was inactive: 59%. Regarding `O=C1CN(C(=O)c2ccc(Cl)cc2Cl)C(c2ccc(F)cc2)c2cc(F)ccc2N1` (configuration not stated), the survival is inactive: 65%.

Take `CCOC(=O)C1CCN(C(=O)CSc2n[nH]c(-c3ccccc3Cl)n2)CC1`: the survival is inactive: 77%. Regarding `CN(C)c1ccc(CNC(=O)c2cc3ccccn3n2)cc1`, the survival was inactive: 55%. `Cc1ccc(C)c(NC(=O)CCCN2C(=O)COc3ccc(C)cc32)c1`: the survival was inactive: 120%. As to `Cc1cc(C)cc(NC(=O)CSc2nnc(COc3ccccc3Cl)o2)c1`, the survival is active: 12%. On to `CCN(CC)S(=O)(=O)c1ccc2c(c1)c(=O)c(C(=O)N(C)Cc1ccccc1)cn2C`, for which the survival was inactive: 80%.

On to `CC(C)(C)OC(=O)N1CCC(c2c(C(=O)Nc3cccc(C(F)(F)F)c3)cnn2-c2ccc(F)cc2F)CC1`, for which the survival was inactive: 61%. For the molecule `CC(=O)Nc1nonc1-c1nnc(SCc2ccc(F)cc2Cl)n1C`, the survival is inactive: 45%. With `Cc1cc(C)cc(NC(=O)c2sc3nc(-c4ccccc4)cn3c2C)c1`, the survival was inactive: 116%. On to `COc1ccc(NC(=O)c2cc(-c3ccc4c(c3)OCO4)on2)c(OC)c1`, for which the survival was inactive: 71%.

Turning to `CCOC(=O)c1cccc(NC(=O)CCS(=O)(=O)c2ccc(Br)s2)c1`, the survival is inactive: 71%. As for `Cc1ccc(NC(=O)CN2Cc3ccccc3C2=O)c(C)c1`, the survival was inactive: 89%. For the molecule `Cn1c(=O)c2c(nc(SCC(=O)Nc3ccc(F)cc3F)n2Cc2ccccc2)n(C)c1=O`, the survival was inactive: 135%. Take `COc1ccc(/C=C/C(=O)Nc2ccc3nc(N4CCC(C)CC4)cc(C)c3c2)cc1OC`: the survival is inactive: 51%. Take `CC1(C(=O)NC2CCCCC2)Cc2ccccc2C(=O)N1Cc1ccc(Cl)cc1` (configuration not stated): the survival is inactive: 92%. For the molecule `COc1cccc(C2C(C(=O)Nc3ccc(Cl)cc3)=C(C)Nc3c(C(=O)Nc4ccccc4)cnn32)c1OC` (configuration not stated), the survival was inactive: 71%. In the case of `O=C(CN(Cc1ccccc1F)C(=O)c1ccco1)NCc1ccc(F)cc1`, the survival is inactive: 97%. For the molecule `CCOc1ccc(CNC(=O)CN2C(=O)CCn3nc(-c4cn(C)c5ccccc45)cc32)cc1OC`, the survival was active: -4%. For the molecule `CCCn1c2ccccc2c2cnn(CC(=O)Nc3cccc(C(=O)OCC)c3)c(=O)c21`, the survival is inactive: 73%.

For `O=C(NCc1cccs1)c1nn(-c2ccccc2)nc1CO`, the survival is inactive: 84%. Consider `Cc1ccc(NC(=O)Cn2c(=O)n(-c3ccc(C)cc3)c(=O)c3ccc(C(=O)NCc4ccccc4Cl)cc32)cc1`, for which the survival was inactive: 74%.

On to `Cc1ccc(S(=O)(=O)c2nc(-c3ccco3)oc2SC(C)C)cc1`, for which the survival was inactive: 47%.

As for `C=CCSc1nsc(N)n1`, the survival was inactive: 75%. Next, `Cc1cc(=O)n(Cc2cccc(Br)c2)c2c1c(C)nn2-c1ccccc1`: inactive: 95%. As for `Cc1cc(Cl)ccc1NS(=O)(=O)c1ccc2c(c1)CCN2S(C)(=O)=O`, the survival was inactive: 96%. `Cc1cccc(CNC(=O)Cc2csc3ccccc23)c1`: the survival was inactive: 111%. In the case of `CCOc1cc(/C=C2\SC(=S)N(CCCC(=O)O)C2=O)ccc1O`, the survival is inactive: 62%. In the case of `COc1ccc(S(=O)(=O)N2CCN(Cc3nc4ccc(C)cc4o3)CC2)cc1OC`, the survival was inactive: 84%. As for `CCOC(=O)C1CCN(c2cc3c(cc2NC(=O)c2ccc(OC)c(OC)c2)n(C)c(=O)n3C)CC1`, the survival was inactive: 58%. For the molecule `CC1CCCCN1S(=O)(=O)c1ccc(F)c(C(=O)Nc2ccccc2C(F)(F)F)c1` (configuration not stated), the survival is inactive: 89%. As to `CCCNC(=O)NC1CC(C)(C)NC(C)(C)C1`, the survival is inactive: 80%. As for `CCC(C)NC(=O)Cn1c(=O)n(CCCC(=O)NCc2ccc(C)cc2)c(=O)c2ccccc21` (configuration not stated), the survival was inactive: 94%. Next, `Cc1cn2c(=O)cc(COc3cc(C)c(Cl)c(C)c3)nc2s1`: inactive: 141%; `CCCOC(=O)c1cc(=O)[nH]c2ccccc12`: inactive: 74%; `Cc1ccc(NC(=O)CSc2nc3c(oc4ccccc43)c(=O)n2Cc2ccco2)cc1`: inactive: 70%.

Regarding `CCCn1c(=O)c2sccc2n2c(CCCC(=O)N3CCN(c4cccc(C)c4C)CC3)nnc12`, the survival is inactive: 78%.

Consider `CCc1ccccc1NC(=O)C1COc2ccccc2C1` (configuration not stated), for which the survival is inactive: 92%. `Cn1cnc(S(=O)(=O)N2CCC(C(=O)N3CCN(c4ccc(Cl)cc4)CC3)CC2)c1`: the survival was active: 37%. On to `N#C/C(=C\c1ccccc1)C(=O)Nc1sc2c(c1C(N)=O)CCC2`, for which the survival was inactive: 59%.

Take `CC(C)Oc1ccc(CNC(=O)c2cnc3sc(N4CCCCC4)nn3c2=O)cc1`: the survival is inactive: 124%.

`COc1cc2c(-c3ccc(C)cc3)nc3c(c(C)nn3-c3ccccc3)c2cc1OC`: the survival was inactive: 72%. In the case of `Cc1cc(C)cc(OCC(=O)Nc2ccc(Cl)c(-c3nc4ncccc4o3)c2)c1` it was inactive: 94%; in that of `CCc1ccc(Sc2cc(C(=O)NCCCOC(C)C)c3ccccc3n2)cc1`, inactive: 76%; in that of `CC(=O)Nc1ccc(-n2c(CCC(=O)O)ccc2-c2ccc(C)cc2)cc1`, inactive: 56%. Take `O=C(Cc1cccs1)NC1CCN(Cc2ccccc2)CC1`: the survival is inactive: 86%. Regarding `CCc1ccc(-c2cn3c(n2)sc2cc(C(=O)NCC(C)c4ccccc4)ccc23)cc1` (configuration not stated), the survival is inactive: 69%. As to `Cc1nc2c(C(=O)NCCc3ccc(Cl)cc3)c[nH]n2c(=O)c1Cc1ccccc1F`, the survival was active: -12%.
